{
  "source": "the supplement of paper PMC8728848",
  "binders": {"B1": {"name": "DC-ASGPR S+GEE (Homo sapiens) (protein)", "chain": "MTRTYENFQYLENKVKVQGFKNGPLPLQSLLQRLRSGPCHLLLSLGLGLLLLVIICVVGFQNSKFQRDLVTLRTDFSNFTSNTVAEIQALTSQGSSLEETIASLKAEVEGFKQERQAVHSEMLLRVQQLVQDLKKLTCQVATINNNGEEASTEGTCCPVNWVEHQDSCYWFSHSGMSWAEAEKYCQLKNAHLVVINSREEQNFVQKYLGSAYTWMGLSDPEGAWKWVDGTDYATGFQNWKPGQPDDWQGHGLGGGEDCAHFHPDGRWNDDVCQRPYHWVCEAGLGQTSQESH"}},
  "assay_in_all_cases": "glycan array binding signal (z-score within array); higher = stronger binding",
  "conditions_in_all_cases": "glycan notation: IUPAC condensed, linker removed",
  "key": {"[1]": {"molecular_target": "Gal(b1-4)GlcNAc(b1-3)Gal(b1-4)GlcNAc(b1-3)[Gal(b1-4)GlcNAc(b1-3)Gal(b1-4)GlcNAc(b1-6)]GalNAc", "outline": "(§1)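 Glycan array data were curated from 3228 arrays in the Consortium for Functional Glycomics database and kept only where the protein sequence was available. Glycan names were converted to IUPAC-condensed notation, and columns mapping to the same glycan were averaged. The binding signal is a within-array Z-score, averaged across arrays of the same protein sequence at different concentrations or buffers and across linkers. Negative Z-scores can be read as non-binding.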"}, "[2]": {"molecular_target": "Gal(b1-4)GlcNAc(b1-3)Gal(b1-4)GlcNAc(b1-6)[Gal(b1-3)]GalNAc", "outline": "as §1"}, "[3]": {"molecular_target": "Gal(b1-4)GlcNAc(b1-3)Gal(b1-4)[Fuc(a1-3)]GlcNAc(b1-3)Gal(b1-4)[Fuc(a1-3)]GlcNAc", "outline": "as §1"}, "[4]": {"molecular_target": "Gal(b1-4)GlcNAc(b1-3)GalNAc", "outline": "as §1"}, "[5]": {"molecular_target": "Gal(b1-4)GlcNAc(b1-3)[Fuc(a1-3)GlcNAc(b1-6)]Gal(b1-4)Glc", "outline": "as §1"}, "[6]": {"molecular_target": "Gal(b1-4)GlcNAc(b1-3)[Gal(b1-4)GlcNAc(b1-6)]Gal(b1-4)GlcNAc", "outline": "as §1"}, "[7]": {"molecular_target": "Gal(b1-4)GlcNAc(b1-3)[GlcNAc(b1-6)]Gal(b1-4)GlcNAc", "outline": "as §1"}, "[8]": {"molecular_target": "Gal(b1-4)GlcNAc(b1-6)Gal(b1-4)GlcNAc", "outline": "as §1"}, "[9]": {"molecular_target": "Gal(b1-4)GlcNAc(b1-6)GalNAc", "outline": "as §1"}, "[10]": {"molecular_target": "Gal(b1-4)GlcNAc(b1-6)[Gal(b1-3)]GalNAc", "outline": "as §1"}, "[11]": {"molecular_target": "Gal(b1-4)GlcNAc(b1-6)[Gal(b1-4)GlcNAc(b1-3)]GalNAc", "outline": "as §1"}, "[12]": {"molecular_target": "Gal(b1-4)GlcNAc6P", "outline": "as §1"}, "[13]": {"molecular_target": "Gal(b1-6)Gal", "outline": "as §1"}, "[14]": {"molecular_target": "Gal3S(b1-3)GalNAc", "outline": "as §1"}, "[15]": {"molecular_target": "Gal3S(b1-3)GlcNAc", "outline": "as §1"}, "[16]": {"molecular_target": "Gal3S(b1-3)[Fuc(a1-4)]GlcNAc", "outline": "as §1"}, "[17]": {"molecular_target": "Gal3S(b1-4)Glc", "outline": "as §1"}, "[18]": {"molecular_target": "Gal3S(b1-4)Glc6S", "outline": "as §1"}, "[19]": {"molecular_target": "Gal3S(b1-4)GlcNAc", "outline": "as §1"}, "[20]": {"molecular_target": "Gal3S(b1-4)[Fuc(a1-3)]Glc6S", "outline": "as §1"}, "[21]": {"molecular_target": "Gal3S(b1-4)[Fuc(a1-3)]GlcNAc", "outline": "as §1"}, "[22]": {"molecular_target": "Gal3S(b1-4)[Fuc(a1-3)]GlcNAc6S", "outline": "as §1"}, "[23]": {"molecular_target": "Gal3S4S(b1-4)GlcNAc", "outline": "as §1"}, "[24]": {"molecular_target": "Gal3S6S(b1-4)GlcNAc", "outline": "as §1"}, "[25]": {"molecular_target": "Gal3S6S(b1-4)GlcNAc6S", "outline": "as §1"}, "[26]": {"molecular_target": "Gal4S(b1-4)GlcNAc", "outline": "as §1"}, "[27]": {"molecular_target": "Gal4S6S(b1-4)GlcNAc", "outline": "as §1"}, "[28]": {"molecular_target": "Gal6P(b1-4)GlcNAc", "outline": "as §1"}, "[29]": {"molecular_target": "Gal6S(b1-3)GlcNAc", "outline": "as §1"}, "[30]": {"molecular_target": "Gal6S(b1-3)GlcNAc6S", "outline": "as §1"}, "[31]": {"molecular_target": "Gal6S(b1-4)Glc", "outline": "as §1"}, "[32]": {"molecular_target": "Gal6S(b1-4)Glc6S", "outline": "as §1"}, "[33]": {"molecular_target": "Gal6S(b1-4)GlcNAc", "outline": "as §1"}, "[34]": {"molecular_target": "Gal6S(b1-4)GlcNAc6S", "outline": "as §1"}, "[35]": {"molecular_target": "GalNAc(a1-3)Gal", "outline": "as §1"}, "[36]": {"molecular_target": "GalNAc(a1-3)GalNAc", "outline": "as §1"}, "[37]": {"molecular_target": "GalNAc(a1-3)GalNAc(b1-3)Gal(a1-4)Gal(b1-4)Glc", "outline": "as §1"}, "[38]": {"molecular_target": "GalNAc(a1-3)GalNAc(b1-3)Gal(a1-4)Gal(b1-4)GlcNAc", "outline": "as §1"}, "[39]": {"molecular_target": "GalNAc(b1-3)Gal", "outline": "as §1"}, "[40]": {"molecular_target": "GalNAc(b1-3)Gal(a1-4)Gal(b1-4)GlcNAc", "outline": "as §1"}, "[41]": {"molecular_target": "GalNAc(b1-3)Gal(a1-4)Gal(b1-4)GlcNAc(b1-3)Gal(b1-4)Glc", "outline": "as §1"}, "[42]": {"molecular_target": "GalNAc(b1-3)Gal(a1-6)Gal(b1-4)Glc", "outline": "as §1"}, "[43]": {"molecular_target": "GalNAc(b1-3)GalNAc", "outline": "as §1"}, "[44]": {"molecular_target": "GalNAc(b1-3)GlcNAc", "outline": "as §1"}, "[45]": {"molecular_target": "GalNAc(b1-4)Gal(b1-4)Glc", "outline": "as §1"}},
  "note": "The list shows a part of the results.",
  "data": [
    {"binder": "B1", "values": [
      {"measurement": "glycan array binding signal (z-score)", "setting": "[1]", "value": -0.314},
      {"measurement": "glycan array binding signal (z-score)", "setting": "[2]", "value": -0.312},
      {"measurement": "glycan array binding signal (z-score)", "setting": "[3]", "value": -0.159},
      {"measurement": "glycan array binding signal (z-score)", "setting": "[4]", "value": -0.316},
      {"measurement": "glycan array binding signal (z-score)", "setting": "[5]", "value": -0.364},
      {"measurement": "glycan array binding signal (z-score)", "setting": "[6]", "value": -0.354},
      {"measurement": "glycan array binding signal (z-score)", "setting": "[7]", "value": -0.368},
      {"measurement": "glycan array binding signal (z-score)", "setting": "[8]", "value": -0.354},
      {"measurement": "glycan array binding signal (z-score)", "setting": "[9]", "value": 3.6},
      {"measurement": "glycan array binding signal (z-score)", "setting": "[10]", "value": 0.136},
      {"measurement": "glycan array binding signal (z-score)", "setting": "[11]", "value": -0.242},
      {"measurement": "glycan array binding signal (z-score)", "setting": "[12]", "value": -0.349},
      {"measurement": "glycan array binding signal (z-score)", "setting": "[13]", "value": -0.38},
      {"measurement": "glycan array binding signal (z-score)", "setting": "[14]", "value": -0.306},
      {"measurement": "glycan array binding signal (z-score)", "setting": "[15]", "value": -0.749},
      {"measurement": "glycan array binding signal (z-score)", "setting": "[16]", "value": -0.233},
      {"measurement": "glycan array binding signal (z-score)", "setting": "[17]", "value": -0.309},
      {"measurement": "glycan array binding signal (z-score)", "setting": "[18]", "value": -0.253},
      {"measurement": "glycan array binding signal (z-score)", "setting": "[19]", "value": -0.341},
      {"measurement": "glycan array binding signal (z-score)", "setting": "[20]", "value": -0.238},
      {"measurement": "glycan array binding signal (z-score)", "setting": "[21]", "value": -0.333},
      {"measurement": "glycan array binding signal (z-score)", "setting": "[22]", "value": -0.32},
      {"measurement": "glycan array binding signal (z-score)", "setting": "[23]", "value": -0.365},
      {"measurement": "glycan array binding signal (z-score)", "setting": "[24]", "value": -0.324},
      {"measurement": "glycan array binding signal (z-score)", "setting": "[25]", "value": -0.311},
      {"measurement": "glycan array binding signal (z-score)", "setting": "[26]", "value": -0.365},
      {"measurement": "glycan array binding signal (z-score)", "setting": "[27]", "value": -0.252},
      {"measurement": "glycan array binding signal (z-score)", "setting": "[28]", "value": -0.321},
      {"measurement": "glycan array binding signal (z-score)", "setting": "[29]", "value": -0.247},
      {"measurement": "glycan array binding signal (z-score)", "setting": "[30]", "value": -0.28},
      {"measurement": "glycan array binding signal (z-score)", "setting": "[31]", "value": -0.274},
      {"measurement": "glycan array binding signal (z-score)", "setting": "[32]", "value": -0.259},
      {"measurement": "glycan array binding signal (z-score)", "setting": "[33]", "value": -0.262},
      {"measurement": "glycan array binding signal (z-score)", "setting": "[34]", "value": -0.287},
      {"measurement": "glycan array binding signal (z-score)", "setting": "[35]", "value": 2.48},
      {"measurement": "glycan array binding signal (z-score)", "setting": "[36]", "value": 1.12},
      {"measurement": "glycan array binding signal (z-score)", "setting": "[37]", "value": 0.831},
      {"measurement": "glycan array binding signal (z-score)", "setting": "[38]", "value": 0.965},
      {"measurement": "glycan array binding signal (z-score)", "setting": "[39]", "value": 3.1},
      {"measurement": "glycan array binding signal (z-score)", "setting": "[40]", "value": 4.67},
      {"measurement": "glycan array binding signal (z-score)", "setting": "[41]", "value": 4.39},
      {"measurement": "glycan array binding signal (z-score)", "setting": "[42]", "value": 3.63},
      {"measurement": "glycan array binding signal (z-score)", "setting": "[43]", "value": 0.463},
      {"measurement": "glycan array binding signal (z-score)", "setting": "[44]", "value": 3.07},
      {"measurement": "glycan array binding signal (z-score)", "setting": "[45]", "value": -0.034}
    ]}
  ]
}
